Experimental data from PubChem BioAssay AID463173 (ICCB-Longwood Screening Facility, Harvard Medical School, 2010).
Hit rate of the full screen: of about 52,000 compounds, about 1,700 (3.3%) were called active. Cut-off read from the data, not from the text of the source: active = survival mostly below about 52% (no sharp cut-off); inactive = mostly above about 56%. The list shows a part of the results.

Tested on: Wild type
Test: growth inhibition of S. aureus wild type versus tarO mutant, primary screen, teichoic acid synthesis inhibitors, RN4220, OD600 (AID 463173)
Conditions: S. aureus RN4220 wild type/DeltatarO growth, OD600, 18 h, stronger effect = lower value, screened at 18.75 µg/mL (by protocol)

| Compound | survival |
| --- | --- |
| COc1cc(C(=O)NCC(c2cccs2)S(=O)(=O)c2ccc(F)cc2)cc(OC)c1OC (configuration not stated) | inactive: 126% |
| CC(C)NC(=O)CN1C(=O)COc2ccc(S(=O)(=O)N3CCCCCC3)cc21 | inactive: 75% |
| CCOC(=O)c1c(C)[nH]c(CCC(=O)Nc2ccc(C)c(F)c2)c1C | inactive: 70% |
| Cc1cccc(NC(=O)c2nnn(CC(=O)Nc3ccc(C(C)C)cc3)c2N)c1C | inactive: 93% |
| Cc1ccccc1Oc1ccc(-c2nc(N)nc(N)n2)cc1 | inactive: 100% |
| O=C(CSC1=NCCS1)NCc1ccco1 | inactive: 110% |
| CCC(=O)N1CCc2cc(Br)cc(S(=O)(=O)CCC(=O)NCc3ccc(Cl)cc3)c21 | inactive: 96% |
| Cc1nc(Oc2ccc(F)cc2Cl)c2oc3ccccc3c2n1 | inactive: 79% |
| CCOc1ccccc1NC(=O)CN(C)S(=O)(=O)c1ccc2nc(C)sc2c1 | inactive: 83% |
| CCOC(=O)Cc1nn(Cc2ccccc2)c(=O)c2ccccc12 | inactive: 118% |
| CC(C)Oc1ccc(C(=O)N(Cc2ccco2)c2ccccn2)cc1 | inactive: 92% |
| CSC1=NC2(CCN(C(=O)NC3CCCCC3)CC2)N=C1c1ccc(C)c(C)c1 | inactive: 71% |
| Cc1ccc(CNC(=O)CC(C)S(=O)(=O)c2cc3c(cc2C)NC(=O)CO3)cc1 (configuration not stated) | inactive: 71% |
| Cc1ccc(NC(=O)CCc2nnc3n(C)c(=O)c4sccc4n23)cc1C | inactive: 72% |
| COc1ccc(Br)cc1CNC(=O)c1cc2n(n1)CCCN(Cc1ccc(C)cc1)C2=O | inactive: 74% |
| O=C(Nc1sc2c(c1C(=O)NCc1ccco1)CCCC2)c1cc(=O)c2ccccc2o1 | inactive: 88% |
| Cc1ccc(C)c(NC(=O)CN2C(=O)C(C)(C)c3ccccc32)c1 | inactive: 76% |
| CC(C)N(C(=O)CSc1nnc(CSc2ncccn2)n1C)C(C)C | inactive: 102% |
| CC(NC1CCCC1)c1ccccc1 (configuration not stated) | inactive: 107% |
| CCc1ccc(CN(Cc2ccco2)c2cnc(S(C)(=O)=O)nc2C(=O)Nc2ccccc2Cl)cc1 | inactive: 120% |
| Fc1ccc(Nc2c3c(nc4ccccc24)CCC3)cc1 | inactive: 70% |
| CCc1nnc(SC(CC)C(=O)Nc2cccc(OC)c2)c2cc3oc(C)cc3n12 (configuration not stated) | inactive: 82% |
| Cc1ccc(Sc2c(C)nn(C(C)(C)C)c2OC(=O)C(C)(C)C)cc1 | active: -8% |

| Compound | survival |
| --- | --- |
| Cc1cccc(OCC(=O)N2CCc3ccccc32)c1 | inactive: 106% |
| CN1C(=O)CC(NCCc2ccc(S(N)(=O)=O)cc2)C1=O (configuration not stated) | inactive: 104% |
| COC(=O)c1scc(-c2ccc(C)cc2)c1S(=O)(=O)N1CCN(c2cccc(OC)c2)CC1 | inactive: 53% |
| CNC(=S)N(Cc1cccnc1)Cc1cc2cc(OC)ccc2[nH]c1=O | inactive: 112% |
| CCOC(=O)c1ccc(NC(=O)CC2C(=O)OCCN2CC)cc1 (configuration not stated) | inactive: 66% |
| O=C(NCc1ccco1)c1ccc2c(c1)N(Cc1ccc(Cl)cc1)C(=O)c1ccccc1S2=O (configuration not stated) | inactive: 165% |
| Cc1ccc(NC(=O)Nc2ccc3snnc3c2)cc1C | inactive: 90% |
| CCN(c1ccccc1)c1nnc(NC(=O)Nc2ccccc2F)s1 | inactive: 108% |
| CCN(C(=O)C1CCCN(S(=O)(=O)c2c(C)noc2/C=C/N(C)C)C1)c1cccc(C)c1 (configuration not stated) | inactive: 76% |
| COC(=O)c1ccc(Cn2c(=O)cc(C)c3c(C)nn(C)c32)cc1 | inactive: 53% |
| Cc1cc(=O)[nH]c2nnc(SCC(=O)Nc3cc(C(F)(F)F)ccc3Cl)n12 | inactive: 136% |
| CCc1ccc(CNC(=O)c2nn(-c3ccc(C)c(C)c3)nc2CO)cc1 | inactive: 116% |
| CCC(C)NC(=O)Cn1ncc2c(C)n(Cc3ccc(F)cc3)c(C)c2c1=O (configuration not stated) | inactive: 81% |
| Cc1ccc2c(=O)cc(C(=O)Nc3sc4c(c3C(=O)NCc3ccco3)CCCC4)oc2c1C | inactive: 84% |
| Cc1ccc2c(CNCc3cccs3)c(C(=O)O)n(Cc3ccc(F)cc3)c2c1 | inactive: 78% |
| CC(=O)CSc1nc(-c2ccccc2)[nH]c1S(=O)(=O)c1ccc(C)cc1 | inactive: 77% |
| CCOc1ccc(Sc2cc(C(=O)NCc3ccc(F)cc3)c3ccccc3n2)cc1 | inactive: 146% |
| CCn1cc(C(=O)N2CCN(c3ccccc3)CC2)c(=O)c2cc(S(=O)(=O)N(C)C3CCCCC3)ccc21 | inactive: 81% |
| CC(C)(C)C(=O)N1c2ccccc2CCc2ccccc21 | inactive: 117% |
| O=C(NC1CCCCC1)C1OC(c2ccccc2)OC1C(=O)NC1CCCCC1 (configuration not stated) | inactive: 100% |
| CN(C)c1ccc(C(CNC(=O)COc2ccccc2)N2CCOCC2)cc1 (configuration not stated) | inactive: 78% |
| CCN(CC)S(=O)(=O)c1ccc2c(c1)N(CC(=O)NCc1ccccc1)C(=O)CS2 | inactive: 79% |
| Cn1ncc2c(NCc3cccc(Cl)c3)ncnc21 | inactive: 135% |

| Compound | survival |
| --- | --- |
| COc1cc(Cl)c(C)cc1NC(=O)CSc1cc(=O)n(C)c2cc(Cl)ccc12 | inactive: 82% |
| CCOc1ccc(NC(=O)Nc2c(C)n(C)n(-c3ccccc3)c2=O)cc1 | inactive: 73% |
| O=C(CN1C(=O)CCSc2ccc(S(=O)(=O)N3CCCC3)cc21)Nc1cccc(Cl)c1 | inactive: 89% |
| Cc1ccc(-c2noc(CCC(=O)Nc3ccc(F)cc3Cl)n2)cc1 | inactive: 83% |
| Cc1c(Cl)cccc1NC(=O)N1CCN(Cc2cc(=O)n3nc(-c4ccccc4F)sc3n2)CC1 | inactive: 70% |
| CCCS(=O)(=O)N1CCC(N2CCN(Cc3ccc(C)cc3)C(=O)C2=O)CC1 | inactive: 81% |
| Cc1nn(C)c2c1c(-c1ccccc1)cc(=O)n2Cc1ccccc1F | inactive: 120% |
| O=C(O)/C(=C/C(=O)c1ccccc1)Nc1ccccc1 | inactive: 100% |
| COc1ccc(NC(=O)c2cccc(N3CCCS3(=O)=O)c2)cc1 | inactive: 69% |
| NC(=O)CSc1ncc2c(n1)-c1ccccc1N(Cc1ccccc1)S2(=O)=O | inactive: 69% |
| Cc1cc(C)c2c(=O)cc(C(=O)NCCc3ccc(S(N)(=O)=O)cc3)oc2c1 | inactive: 91% |
| COc1ccc(NS(=O)(=O)c2ccc3c(c2)CCN3C(=O)C2CC2)cc1OC | inactive: 84% |
| O=C(Cc1cccs1)N1CCC(Cc2ccccc2)CC1 | inactive: 112% |
| Cc1ccccc1CNC(=O)C(=O)NCC(c1ccco1)S(=O)(=O)c1ccc(F)cc1 (configuration not stated) | inactive: 55% |
| CC(C)OC(=O)CSc1n[nH]c(-c2cccnc2)n1 | inactive: 101% |
| COc1cccc(CNC(=O)Cn2c(=O)c3cccn3c3ccc(F)cc32)c1OC | inactive: 121% |
| COC(=O)c1ccc(COC(=O)c2ccccn2)cc1 | inactive: 107% |
| Cc1cccc(NC(=O)C(c2ccccc2)N2Cc3ccccc3C2=O)c1C (configuration not stated) | inactive: 78% |
| Cc1cccc(NC(=O)CSc2nnc(-c3cccs3)o2)c1 | inactive: 85% |
| COc1ccccc1N1CCN(C(=O)CCn2cnc3onc(-c4ccc(F)cc4)c3c2=O)CC1 | inactive: 87% |
| COc1cccc2cc(-c3nnc(Nc4ccccc4C)s3)c(=O)oc12 | inactive: 74% |
| CNC(=O)CN(C1CCCCC1)S(=O)(=O)c1ccc(C)cc1 | inactive: 121% |
| COC(=O)c1sccc1S(=O)(=O)N(CC(=O)Nc1ccc(C)cc1)c1ccccc1 | inactive: 99% |

| Compound | survival |
| --- | --- |
| Cc1cc(C)cc(N2C(=O)CS(=O)(=O)C23C(=O)N(Cc2ccc(F)cc2)c2ccc(C)cc23)c1 (configuration not stated) | inactive: 76% |
| COc1ccc(NC(=O)Cn2c(=O)nc(-c3ccccc3)c3ccccc32)cc1OC | inactive: 85% |
| Cc1cc(F)ccc1NC(=O)C1CCCN(c2nnc(-n3c(C)ccc3C)s2)C1 (configuration not stated) | inactive: 81% |
| Cc1ccc(CCNC(=O)NCc2noc3ccc(C)cc23)cc1 | inactive: 85% |
| CCOc1ccc(-c2cc3nc(C4CCN(C(=O)OC(C)(C)C)CC4)c(C(=O)Nc4ccc(C(=O)OC)cc4)cn3n2)cc1 | inactive: 125% |
| Cn1ncc(C(=O)N2CCN(c3ccccc3)CC2)c1C1CCN(C(=O)OC(C)(C)C)CC1 | inactive: 85% |
| Cc1cc(C)n2nc(CNC(=O)c3cccc(Cl)c3)nc2n1 | inactive: 76% |
| CS(=O)(=O)N1CCC(c2nc3c(nnn3Cc3ccc(F)cc3)c(=O)[nH]2)CC1 | inactive: 119% |
| COc1cc(S(=O)(=O)N2CC(C)OC(C)C2)c(OC)cc1Cl (configuration not stated) | inactive: 103% |
| CSc1ccc(CCNC(=O)C(C)n2nc(C)c3c(C)n(-c4ccccc4)nc3c2=O)cc1 (configuration not stated) | inactive: 64% |
| Cc1cccc(CNC(=O)c2ccc(-c3nc(CS(=O)(=O)c4ccccc4)c(C)o3)cc2)c1 | inactive: 87% |
| Cc1ccc(CCNC(=O)Cn2nc(C)c3c(C)n(-c4ccc(C)cc4)nc3c2=O)cc1 | inactive: 71% |
| C=CCN1CCN(C(c2ccc(C)cc2)c2nnnn2C2CCCC2)CC1 (configuration not stated) | inactive: 107% |
| N#CC1=C(N)SC(N)=C(C#N)C1c1cc2c(cc1Cl)OCO2 | inactive: 112% |
| CCN1C(=O)/C(=C/C=C2\Oc3ccccc3N2CC)SC1=S | inactive: 99% |
| CN(C)c1ccc(-c2nc(-c3ccccn3)no2)cc1[N+](=O)[O-] | inactive: 80% |
| Cc1ccc(NC(=O)COc2ccc3oc4c(c3c2)CCCC4)c(C)c1 | inactive: 75% |
| CCN(Cc1ccccc1)C(c1ccccn1)c1nnnn1C(C)(C)CC (configuration not stated) | inactive: 108% |
| Nc1ncc(S(=O)(=O)NCc2ccccc2F)cn1 | inactive: 56% |
| Cc1ccc(Nc2cc(C(=O)NC3CCCC3)c3ccccc3n2)cc1C | inactive: 51% |
| COc1ccccc1N1CCN(C(=O)C2CCN(S(=O)(=O)c3cccc4nonc34)CC2)CC1 | inactive: 55% |
| CC(C)COc1ccc(C(=O)NCC2OCCc3ccccc32)cc1 (configuration not stated) | inactive: 90% |
| CCOC(=O)c1c(C)n(-c2ccccc2)c2ccc(OC(=O)c3ccccc3Cl)cc12 | inactive: 60% |
